About 110 (3.4%) of roughly 3,200 compounds showed an effect of 50% or more. Some of the results follow.
Tested on: T1, V. cholerae SAD30
T1 construct: SAD30
Set-up: species or system S. aureus MSSA476 (TSB) or V. cholerae SAD30 (LB); 384-well bacterial growth screen at 25 uM, OD600 relative to DMSO control
Details: relative growth, OD600, LB; 25 µM; inhibitor

| SMILES | % of control remaining [%] |
| --- | --- |
| COc1ccc(N(C(=O)CCl)C2CCS(=O)(=O)C2)cc1 (centres unmarked) [5-I20, 2-chloro-N-(1,1-dioxo-1lambda6-thiolan-3-yl)-N-(4-methoxyphenyl)acetamide] | 103.898 |
| CCc1ccc(C(=O)CCl)cc1 [10-F18, 2-chloro-1-(4-ethylphenyl)ethan-1-one] | 26.1835 |
| C=CC(=O)N1CCC(C(=O)NC2CC2(C)C)CC1 (centres unmarked) [3-C07, N-(2,2-dimethylcyclopropyl)-1-(prop-2-enoyl)piperidine-4-carboxamide] | 110.086 |
| CCCC(=O)Nc1ccc(C(=O)C(C)Cl)cc1 (centres unmarked) [10-O06, N-[4-(2-chloropropanoyl)phenyl]butanamide] | 98.8116 |
| CC(Cl)C(=O)N(Cc1ccccc1)C1C=CS(=O)(=O)C1 (centres unmarked) [6-D22, N-benzyl-2-chloro-N-(1,1-dioxo-2,3-dihydro-1lambda6-thiophen-3-yl)propanamide] | 97.2225 |
| O=C(CCl)Nc1cccc(OCc2ccccc2)c1 [5-I04, N-[3-(benzyloxy)phenyl]-2-chloroacetamide] | 87.4225 |
| N#CC(=Cc1cnn(Cc2ccccc2)c1)C(=O)NC1CCCC1 [9-O14, 3-(1-benzyl-1H-pyrazol-4-yl)-2-cyano-N-cyclopentylprop-2-enamide] | 76.8865 |
| C=CC(=O)NC(C)Cn1nc(C)cc1C (centres unmarked) [1-F10, N-[1-(3,5-dimethyl-1H-pyrazol-1-yl)propan-2-yl]prop-2-enamide] | 64.7694 |
| C=CC(NC(=O)CCl)C1CCOCC1 (centres unmarked) [5-N13, 2-chloro-N-[1-(oxan-4-yl)prop-2-en-1-yl]acetamide] | 98.8547 |
| COc1cc(C=C(C#N)C(=O)Nc2cccc(Cl)c2)cc(O)c1O [9-G20, N-(3-chlorophenyl)-2-cyano-3-(3,4-dihydroxy-5-methoxyphenyl)prop-2-enamide] | 61.1149 |
| Cc1ccc(NC(=O)C(C#N)=CC2=Cc3ccccc3OC2)cc1 [9-B19, 3-(2H-chromen-3-yl)-2-cyano-N-(4-methylphenyl)prop-2-enamide] | 85.588 |
| C=CC(=O)NCC(=O)c1scc(C)c1Cl [1-D16, N-[2-(3-chloro-4-methylthiophen-2-yl)-2-oxoethyl]prop-2-enamide] | 44.1609 |
| C=CC(=O)Nc1ccccc1Sc1nncs1 [1-G04, N-[2-(1,3,4-thiadiazol-2-ylsulfanyl)phenyl]prop-2-enamide] | 100.149 |
| C=CC(=O)N1CCC[C@H]1c1ccon1 [2-G03, 1-[(2S)-2-(1,2-oxazol-3-yl)pyrrolidin-1-yl]prop-2-en-1-one] | 108.26 |
| C=CCNC(=O)C(C#N)=Cc1ccccc1[N+](=O)[O-] [8-E09, 2-cyano-3-(2-nitrophenyl)-N-(prop-2-en-1-yl)prop-2-enamide] | 71.584 |
| O=C(CCl)NCc1ccnn1C1CCCC1 [7-H08, 2-chloro-N-[(1-cyclopentyl-1H-pyrazol-5-yl)methyl]acetamide] | 83.7932 |
| CCN(Cc1ccc(Cl)s1)C(=O)CCl [6-M11, 2-chloro-N-[(5-chlorothiophen-2-yl)methyl]-N-ethylacetamide] | 83.1169 |
| CC(CO)N(Cc1ccccc1Cl)C(=O)CCl (centres unmarked) [6-D17, 2-chloro-N-[(2-chlorophenyl)methyl]-N-(1-hydroxypropan-2-yl)acetamide] | 94.0373 |
| CC(Cl)C(=O)NC(C)c1ccn(C)n1 (centres unmarked) [6-B16, 2-chloro-N-[1-(1-methyl-1H-pyrazol-3-yl)ethyl]propanamide] | 86.4537 |
| CC(=O)NCCc1ccc(C(=O)CCl)s1 [10-P03, N-{2-[5-(2-chloroacetyl)thiophen-2-yl]ethyl}acetamide] | 110.812 |
| COc1ccc(C(=O)CCl)c2c1C(=O)CO2 [10-N05, 7-(2-chloroacetyl)-4-methoxy-2,3-dihydro-1-benzofuran-3-one] | 105.981 |
| O=C(CCl)NCC1CCCCC1 [5-J06, 2-chloro-N-(cyclohexylmethyl)acetamide] | 96.501 |
| CS(=O)(=O)Nc1ccc(C(=O)CCl)cc1 [10-D19, N-[4-(2-chloroacetyl)phenyl]methanesulfonamide] | 31.3267 |
| C=CCNC(=O)C(C#N)=Cc1cccc(C)c1 [8-D05, 2-cyano-3-(3-methylphenyl)-N-(prop-2-en-1-yl)prop-2-enamide] | 83.1407 |

| SMILES | % of control remaining [%] |
| --- | --- |
| O=C(CCl)NC1CCCN(Cc2ccccc2)C1=O (centres unmarked) [7-J10, N-(1-benzyl-2-oxopiperidin-3-yl)-2-chloroacetamide] | 79.9604 |
| C=CC(=O)N1CCC(C(=O)N[C@H]2CC[C@@H](S(C)(=O)=O)CC2)CC1 [2-J08, 1-(prop-2-enoyl)-N-[(1s,4s)-4-methanesulfonylcyclohexyl]piperidine-4-carboxamide] | 87.5712 |
| C=CC(=O)NC1CCOC(c2cnn(C)c2)C1 (centres unmarked) [2-F07, N-[2-(1-methyl-1H-pyrazol-4-yl)oxan-4-yl]prop-2-enamide] | 94.3646 |
| C=CC(=O)N1CCCC(Oc2ccnc(C(=O)NC)c2)C1 (centres unmarked) [2-L22, N-methyl-4-{[1-(prop-2-enoyl)piperidin-3-yl]oxy}pyridine-2-carboxamide] | 101.004 |
| CC(C1CC1)N(C(=O)CCl)C1CC1 (centres unmarked) [5-F12, 2-chloro-N-cyclopropyl-N-(1-cyclopropylethyl)acetamide] | 92.298 |
| COc1ccc(C=C(C#N)C(=O)Nc2cccc(C(F)(F)F)c2)cc1 [8-A03, 2-cyano-3-(4-methoxyphenyl)-N-[3-(trifluoromethyl)phenyl]prop-2-enamide] | 102.039 |
| N#CC(=Cc1cccc(Cl)c1Cl)C(N)=O [8-J21, 2-cyano-3-(2,3-dichlorophenyl)prop-2-enamide] | 76.2067 |
| C=CC(=O)NC1CS(=O)(=O)C1 [3-P18, N-(1,1-dioxo-1lambda6-thietan-3-yl)prop-2-enamide] | 112.909 |
| C=CC(=O)N1CCC(C(=O)Nc2ncc(CCO)s2)CC1 [2-A08, N-[5-(2-hydroxyethyl)-1,3-thiazol-2-yl]-1-(prop-2-enoyl)piperidine-4-carboxamide] | 94.9821 |
| C=CC(=O)N1CCC(Cn2nc(C)cc2C)CC1 [2-C17, 1-{4-[(3,5-dimethyl-1H-pyrazol-1-yl)methyl]piperidin-1-yl}prop-2-en-1-one] | 93.9014 |
| O=C(CCl)N[C@H](CO)Cc1ccccc1 [6-G20, 2-chloro-N-[(2S)-1-hydroxy-3-phenylpropan-2-yl]acetamide] | 84.6336 |
| O=C1NC(=O)c2cc(NC(=O)N3CCSSCC3)ccc21 [10-K22, N-(1,3-dioxo-2,3-dihydro-1H-isoindol-5-yl)-1,2,5-dithiazepane-5-carboxamide] | 100.526 |
| C=CC(=O)NCC(C)Cn1ccc(C)n1 (centres unmarked) [2-D03, N-[2-methyl-3-(3-methyl-1H-pyrazol-1-yl)propyl]prop-2-enamide] | 120.149 |
| CC(Cl)C(=O)Nc1ccc2c(c1)ncn2CCN(C)C (centres unmarked) [6-P15, 2-chloro-N-{1-[2-(dimethylamino)ethyl]-1H-1,3-benzodiazol-5-yl}propanamide] | 104.048 |
| Cc1nnc(C(C)NC(=O)C(C)Cl)s1 (centres unmarked) [7-D11, 2-chloro-N-[1-(5-methyl-1,3,4-thiadiazol-2-yl)ethyl]propanamide] | 81.282 |
| Cn1cc(C=C(C#N)C(=O)N2CCCC2)c(-c2cc3ccccc3o2)n1 [9-D18, 3-[3-(1-benzofuran-2-yl)-1-methyl-1H-pyrazol-4-yl]-2-(pyrrolidine-1-carbonyl)prop-2-enenitrile] | 81.9171 |
| Cc1ccc(-c2cc(NC(=O)CCl)n(-c3ccccc3)n2)cc1 [4-C06, 2-chloro-N-[3-(4-methylphenyl)-1-phenyl-1H-pyrazol-5-yl]acetamide] | 101.272 |
| N#CCCN(C(=O)CCl)c1ccccc1 [6-I12, 2-chloro-N-(2-cyanoethyl)-N-phenylacetamide] | 84.7853 |
| C=CC(=O)N1CCC(C(=O)NCCn2c(=O)[nH]c3ccccc32)CC1 [3-J03, N-[2-(2-oxo-2,3-dihydro-1H-1,3-benzodiazol-1-yl)ethyl]-1-(prop-2-enoyl)piperidine-4-carboxamide] | 107.44 |
| C=CC(=O)Nc1ccc(C(=O)NC2CC(C)(C)OC2=O)cc1 (centres unmarked) [3-B08, N-(5,5-dimethyl-2-oxooxolan-3-yl)-4-(prop-2-enamido)benzamide] | 110.263 |
| COc1cc(NC(=O)CCl)c(OC)cc1Cl [5-C05, 2-chloro-N-(4-chloro-2,5-dimethoxyphenyl)acetamide] | 97.5097 |
| C=CC(=O)N(CC)CC(=O)N1CCCC(F)(F)C1 [2-G14, N-[2-(3,3-difluoropiperidin-1-yl)-2-oxoethyl]-N-ethylprop-2-enamide] | 90.0415 |
| C=CC(=O)NCc1cn([C@@H]2COC[C@H]2OC)nn1 [1-J17, N-({1-[(3R,4S)-4-methoxyoxolan-3-yl]-1H-1,2,3-triazol-4-yl}methyl)prop-2-enamide] | 85.0523 |
